Experimental data published in the supplement of paper PMC10126150.
Values marked as one replicate rest on one cluster of the flow cell; about a third of the high ones do not repeat.

Tested on: ATP
Assay: switch fluorescence ratio, 500 uM ATP over buffer (Cy3 cluster intensity, sum of 5 cycles each) (fold (ratio)); higher = stronger signal-on switching upon ATP binding; sequences stand for … in TCGTCGGCAGCGTCAGATGTGTATAAGAGACAGTTTTTTTTTTTTTTTTTTTTTTTTT…TC
Conditions: aptamer strand: ATP DNA aptamer (quencher-CACCTGGGGGAGTATTGCGGAGGAAGG + anchor), 100 nM annealed; ATP concentration: 500 uM; one replicate
How it was run: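 Values give the fluorescence ratio for each switch-domain sequence, averaged from per-cluster ratios of summed target-cycle to summed buffer-cycle Cy3 intensity. The Cy3-labelled switching-strand clusters sat on a modified Illumina MiSeq flow-cell, were annealed to 100 nM quencher-labelled ATP aptamer, and were imaged in selection buffer, then after 15 min with 500 uM ATP at 22 °C. Five cycles ran with NaOH stripping and re-annealing between them, and clusters outside 100-1000 RFU were excluded.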
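Note: ATP exposure 15 min at 22 °C before imaging.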

Row | Sequence | switch fluorescence ratio
1 | AGAATTAGAC | 0.99
2 | AATACTTCCG | 1.54
3 | CGATTGAGAG | 0.97
4 | TTGTATTGTC | 1.04
5 | GTATATCAAG | 1
6 | AAGGTATCCG | 1.1
7 | CGGATCAA | 1
8 | GAAGTCGGGA | 0.953
9 | CAACGGCTCG | 1.05
10 | TAAGGGCTAG | 1.02
11 | AAGGCTAGG | 0.982
12 | GGTGGTATCT | 0.988
13 | TGGCTCCGG | 1.03
14 | GAGGAACCGT | 1.01
15 | ATGTCCGGAC | 0.994
16 | ACTGAAGGGC | 0.95
17 | TAATAAGGCC | 0.97
18 | AATGTCAAAA | 0.98
19 | CTATTTGCTG | 0.953
20 | TGGTTTTCAA | 1.02
21 | TACGAAATTA | 1.28
22 | GAAGTAAAGC | 1.17
23 | ATTTATGGTC | 0.965
24 | TCATAGGAAT | 1.02
25 | GAGATTTACG | 1
26 | ACAACGTCGG | 0.983

Row | Sequence | switch fluorescence ratio
27 | CTCAAGGTTG | 0.998
28 | GTTCCACTAG | 0.995
29 | CTGGGGAGT | 1.04
30 | TATCCGCTCC | 2.39
31 | TATATGGCAG | 0.999
32 | TGTAATCAGG | 1.02
33 | AGATACGGAC | 1.55
34 | CAGTAGTCA | 1.46
35 | GGTCGGATAT | 1.01
36 | TGTTGCTTTG | 1.02
37 | GCTAGAATCC | 1.02
38 | GGTAGGAT | 0.966
39 | CCTTCATAG | 1.18
40 | GTGCGTGAGG | 1.02
41 | CGGTTTACTA | 0.973
42 | ACAGTGGACC | 1.08
43 | ATGCAGGGTA | 1.05
44 | GCATAAGGCT | 1.03
45 | GGAAATAGCG | 0.991
46 | GGGTCTTATT | 0.996
47 | GCCGGGCGGA | 0.997
48 | GATAAACCCG | 1.11
49 | GCGAGTCTGC | 1.03
50 | CAGGTTCTTG | 1.02
51 | TTGCATAAAT | 0.977
52 | TCCACTAGGA | 1.09

Row | Sequence | switch fluorescence ratio
53 | CAGACTAAAG | 1.01
54 | TTCACAAAAT | 0.97
55 | TGGATCCCGG | 1.02
56 | AGAATATCC | 1.03
57 | GGGAATTTGA | 0.987
58 | AAGGGACTTT | 1.02
59 | GGTTTCTGAG | 0.997
60 | CCTTATGCA | 1.36
61 | GGTGTTCGCG | 1.03
62 | ATCCACGCGA | 1.31
63 | ATGCTGGGG | 1.01
64 | TTGCTCAGGT | 1.04
65 | AATGCCATA | 1.02
66 | GGGGCATTTT | 1.04
67 | TTAGATAAGT | 1.02
68 | CACCAGAGTC | 1.09
69 | TTGTTTCCGG | 1.04
70 | TTGAAAAGAC | 1.02
71 | CACGGCACCG | 1.24
72 | GGTAAACTGG | 0.959
73 | ATGAATTCGT | 0.999
74 | CCGGCACGGC | 1.07
75 | AATAAGGGGT | 0.98
76 | ATGATGCCAA | 1.03
77 | CGATGTCATT | 0.998
78 | TTGGAACA | 1.09

Row | Sequence | switch fluorescence ratio
79 | ACATGTGCTG | 1.07
80 | GAAAATCTAA | 0.968
81 | GGAACGTTAT | 1.04
82 | ACACTTTGTC | 1.02
83 | ACGTTAGGT | 1.11
84 | TAATCCTTT | 1
85 | CTTTTTGTAT | 0.97
86 | GGTAGACCGA | 1.02
87 | TTTATATCGC | 1.01
88 | ACTACACGTT | 1.38
89 | GGGGACCCG | 1.01
90 | GAGAGCATGG | 0.976
91 | CATTACCTA | 1.06
92 | TGCAGAAGCG | 1.02
93 | TTTCATTTTC | 1.03
94 | CCCCACCCTC | 1.67
95 | TGAGCTGTAT | 1.02
96 | GAGTGTGTCC | 1.02
97 | GAGTCCAG | 0.983
98 | TTATGAATCT | 0.974
99 | ATATCTATAC | 1.12
100 | CGTTGTTTAG | 0.995
101 | AATGTAGATG | 1.02
102 | TACATCTAAG | 0.994
103 | GTGTTTAATA | 1.03
104 | TCTTACAACT | 1.01

Row | Sequence | switch fluorescence ratio
105 | GGACCTCGCA | 1.44
106 | AAGTTGGCCT | 0.968
107 | TGACGCCATT | 1.33
108 | TAGTGCCGTA | 1.1
109 | ACCGCAGTAA | 3.51
110 | AAGTAAAATG | 1.04
111 | TTTCAGGGCG | 1.07
112 | GGCCACCCTG | 1
113 | GCCGGAAGG | 1.04
114 | GGTCTGGGCG | 0.974
115 | AGCAAAAGAG | 1.05
116 | AGTAGGTACA | 1.03
117 | TTATGATCGT | 1
118 | ACTGAAGGGT | 0.961
119 | ATTTAAAGCT | 1.14
120 | ACGGTACATG | 1.35
121 | TTCATTGTCA | 1
122 | AGGCTTAACA | 0.993
123 | ATTTTCGCAG | 1.33
124 | GGTGGACTAG | 1.08
125 | ACCTGCAGAA | 1.04
126 | AGGCTTTCTG | 0.992
127 | ACTTGTTCTC | 0.992
128 | GATGTACGCT | 1.07
129 | CTAAAGGGAT | 0.983
130 | CCCAGGACAT | 1.06

Row | Sequence | switch fluorescence ratio
131 | TGCACAAAGC | 1.01
132 | GACAGTGTAC | 1.29
133 | AATGGACCTG | 0.999
134 | GCTCCAACCT | 1.57
135 | GCGTAAAACA | 0.925
136 | GCAGTCAGCT | 1
137 | GGCAAGTAGG | 1
138 | ACTGCTCATC | 1.04
139 | TACGGTACCT | 1.54
140 | GGGGGAATT | 0.955
141 | TCGCGATTGC | 3.67
142 | ATCACTGTTC | 1.01
143 | AAGGGAGGTA | 1.01
144 | TCGGGTGGCT | 1.02
145 | CTTTCGAGGA | 1.04
146 | GTAATCAGG | 1.02
147 | AGGAGGAAG | 0.981
148 | GATATTAATG | 0.986
149 | ATGGGTAGAA | 1.04
150 | TTAAATCAAT | 0.986
151 | CAATGATTCA | 1.02
152 | ATATGGGATA | 1.01
153 | AAGTCTCAGT | 1.01
154 | CATGGCGAGG | 1.02
